The BET-seq Pho4 binding data (Le et al. 2018)
Some of the results follow. These are noisy estimates, calculated here from bound and input reads.

Biological target: T1, Pho4 (S. cerevisiae) (UniProt P07270)
T1 sequence: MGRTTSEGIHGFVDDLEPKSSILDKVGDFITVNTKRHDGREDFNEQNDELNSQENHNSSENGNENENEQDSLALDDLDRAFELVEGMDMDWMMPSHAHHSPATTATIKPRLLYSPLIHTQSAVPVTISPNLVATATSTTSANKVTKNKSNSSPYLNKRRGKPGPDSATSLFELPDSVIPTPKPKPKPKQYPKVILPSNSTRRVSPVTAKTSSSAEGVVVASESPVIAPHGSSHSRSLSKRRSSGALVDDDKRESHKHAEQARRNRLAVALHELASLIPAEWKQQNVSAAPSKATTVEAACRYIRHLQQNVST
Test: relative binding free energy (BET-seq); higher = weaker binding
Settings: reference: library average

Sequence	relative binding free energy
GGAATCACGTGTGGAG	0.21 kcal/mol
TTCTGCACGTGCGGGG	-0.06 kcal/mol
GACGGCACGTGTCGGT	0.03 kcal/mol
TTTTTCACGTGTAGGC	0.27 kcal/mol
ACGTGCACGTGTTTTT	0.01 kcal/mol
AGGGTCACGTGTGCAA	0.11 kcal/mol
GATGGCACGTGAGTGC	0.33 kcal/mol
CTTCGCACGTGATGGT	-0.01 kcal/mol
TTGGGCACGTGTGCGC	-0.1 kcal/mol
TTGGCCACGTGATGGA	0.08 kcal/mol
TGAATCACGTGAAATG	0.38 kcal/mol
GATAGCACGTGGGTTG	-0.03 kcal/mol
CGATTCACGTGTTTTG	0.36 kcal/mol
GGATGCACGTGGATCG	0.04 kcal/mol
AGGGGCACGTGCACGT	-0.23 kcal/mol
AGTGTCACGTGGAGCT	-0.01 kcal/mol
TGTGTCACGTGTCTTA	0.1 kcal/mol
ACTGTCACGTGTTATT	0.18 kcal/mol
GGATGCACGTGATGGG	0.2 kcal/mol
TGACCCACGTGGGGTG	-0.3 kcal/mol
AGCAGCACGTGGTTGT	-0.18 kcal/mol
GGCTTCACGTGTTTGA	0.18 kcal/mol
TTATACACGTGATAGA	0.15 kcal/mol

Sequence	relative binding free energy
CGGTGCACGTGGGGAG	-0.14 kcal/mol
TGGGGCACGTGGCAAG	-0.2 kcal/mol
GTGTACACGTGGTTTA	0.06 kcal/mol
TGGTGCACGTGTCGGA	0.11 kcal/mol
TAAGTCACGTGAGTTG	0.32 kcal/mol
TTTAGCACGTGCGATA	-0.08 kcal/mol
GTGATCACGTGCAGTG	0.14 kcal/mol
AGGATCACGTGAAGAG	0.33 kcal/mol
CGTGGCACGTGATAAG	-0.01 kcal/mol
TGGGACACGTGTGTGT	0.08 kcal/mol
CAAGTCACGTGTAGTT	0.18 kcal/mol
TGGCACACGTGTTGTT	0.1 kcal/mol
GTATTCACGTGGTGTA	0.23 kcal/mol
AGATGCACGTGCAAGG	-0.07 kcal/mol
TGGGCCACGTGGAGGC	-0.28 kcal/mol
TATTGCACGTGGCGTG	-0.07 kcal/mol
CTTGGCACGTGTAGGG	-0.05 kcal/mol
TATTACACGTGGTTCA	-0.09 kcal/mol
TGTTACACGTGGAATG	0.06 kcal/mol
AAGGTCACGTGCGTTT	-0.01 kcal/mol
ATGGGCACGTGAAGGC	0.18 kcal/mol
GAGGACACGTGGTGTG	0.02 kcal/mol
TTTTTCACGTGGTTCG	0.22 kcal/mol

Sequence	relative binding free energy
GGTAACACGTGAGTTA	0.43 kcal/mol
GGTCACACGTGGGGCA	-0.01 kcal/mol
TGTTACACGTGTAATT	0.06 kcal/mol
AATAGCACGTGTGGGG	0.07 kcal/mol
GTGTTCACGTGTGAAT	0.25 kcal/mol
AGTCACACGTGGGCGT	-0.03 kcal/mol
TCGTCCACGTGGTGTG	-0.09 kcal/mol
TGGCACACGTGTCGGG	0.16 kcal/mol
GGTATCACGTGGATGG	0.2 kcal/mol
TTGTACACGTGCTGCT	0.05 kcal/mol
GAACTCACGTGTGGGG	0.26 kcal/mol
CTTTTCACGTGTTATT	0.08 kcal/mol
GTGTACACGTGGTTGG	0.07 kcal/mol
AGTGGCACGTGGCTGA	-0.35 kcal/mol
GGTTTCACGTGGTGGC	0.31 kcal/mol
GGCGGCACGTGCGTGC	-0.14 kcal/mol
GTGTTCACGTGAATTT	0.47 kcal/mol
GCTGTCACGTGTCGGG	0.19 kcal/mol
CTGTTCACGTGTGCAG	0.17 kcal/mol
TCTAACACGTGGAGGG	-0.05 kcal/mol
CGTGTCACGTGGGACT	-0.01 kcal/mol
TGGTTCACGTGCGAAT	0.42 kcal/mol
CATGTCACGTGGAGTG	0.07 kcal/mol

Sequence	relative binding free energy
GAATTCACGTGTGGTA	0.46 kcal/mol
TATATCACGTGAAGTT	0.4 kcal/mol
ATGGTCACGTGCGGGC	-0.02 kcal/mol
GCTGTCACGTGTAAGG	0.14 kcal/mol
GTATGCACGTGTTCGA	0.05 kcal/mol
TTTGGCACGTGACAGG	-0.16 kcal/mol
GTAGGCACGTGTTGAC	0.01 kcal/mol
TGGCGCACGTGTGTCA	-0.06 kcal/mol
CAGCACACGTGGGGGT	-0.09 kcal/mol
TTTGACACGTGTTTCG	0.08 kcal/mol
TTGGACACGTGAGCTG	0.04 kcal/mol
AAGTACACGTGAAAGT	0.37 kcal/mol
TTATTCACGTGAAGTC	0.4 kcal/mol
TCGTTCACGTGGATTG	0.26 kcal/mol
TAATTCACGTGGTGCG	0.27 kcal/mol
TGTTGCACGTGACTTG	-0.01 kcal/mol
GAATACACGTGGGTCG	0.09 kcal/mol
GCGGGCACGTGGGTCG	-0.18 kcal/mol
GGGTGCACGTGCCGTA	-0.15 kcal/mol
GCATTCACGTGTGGCG	0.42 kcal/mol
GAGTTCACGTGGTGAT	0.32 kcal/mol
CGCGGCACGTGGGGAG	-0.31 kcal/mol
CGAGACACGTGGTCGG	-0.01 kcal/mol

Sequence	relative binding free energy
TATGGCACGTGTTAAC	-0.09 kcal/mol
CGGGGCACGTGGCTAG	-0.22 kcal/mol
AAAAGCACGTGGTTTT	-0.14 kcal/mol
AAATTCACGTGTAAGT	0.28 kcal/mol
TTGCACACGTGTAGGG	-0.03 kcal/mol
TTAGTCACGTGAGGCT	0.28 kcal/mol
GGGCACACGTGTTTGA	0.15 kcal/mol
ACGGGCACGTGGTTAT	-0.14 kcal/mol
TTATACACGTGGGCAG	-0.15 kcal/mol
AATGGCACGTGATGTG	0.01 kcal/mol
TTGTGCACGTGGGACC	-0.15 kcal/mol
TTCGACACGTGTTCGG	0.1 kcal/mol
AAGAGCACGTGAGGGG	0.11 kcal/mol
GTGATCACGTGGAGAG	0.12 kcal/mol
CATTACACGTGTAGGA	0.32 kcal/mol
AACGGCACGTGATAGT	0.14 kcal/mol
ATGATCACGTGAGGGG	0.27 kcal/mol
ATATTCACGTGCAGTG	0.04 kcal/mol
GTGGACACGTGGAGCG	0.08 kcal/mol
GGGCTCACGTGATGGA	0.51 kcal/mol
TATGCCACGTGGTTGG	-0.14 kcal/mol
AAAGGCACGTGTTTTA	-0.14 kcal/mol
GTGGTCACGTGGTACT	0.04 kcal/mol
